# Test results published in ChEMBL document CHEMBL1961873, “Compounds: GSK PKIS; Assays: Nanosyn kinase panel” (2012).
# For some assays here: This list holds what a sample rich in strong results left over. This is a selection; strong and weak results do not stand in their true shares.
# Key:
# [1] = target: T1, Inhibitor of nuclear factor kappa-B kinase subunit epsilon (Homo sapiens) (UniProt Q14164); conditions: at 1 µM;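 further: reported values are averaged percent inhibition figures against human IKKε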
# T1 sequence (whole entry): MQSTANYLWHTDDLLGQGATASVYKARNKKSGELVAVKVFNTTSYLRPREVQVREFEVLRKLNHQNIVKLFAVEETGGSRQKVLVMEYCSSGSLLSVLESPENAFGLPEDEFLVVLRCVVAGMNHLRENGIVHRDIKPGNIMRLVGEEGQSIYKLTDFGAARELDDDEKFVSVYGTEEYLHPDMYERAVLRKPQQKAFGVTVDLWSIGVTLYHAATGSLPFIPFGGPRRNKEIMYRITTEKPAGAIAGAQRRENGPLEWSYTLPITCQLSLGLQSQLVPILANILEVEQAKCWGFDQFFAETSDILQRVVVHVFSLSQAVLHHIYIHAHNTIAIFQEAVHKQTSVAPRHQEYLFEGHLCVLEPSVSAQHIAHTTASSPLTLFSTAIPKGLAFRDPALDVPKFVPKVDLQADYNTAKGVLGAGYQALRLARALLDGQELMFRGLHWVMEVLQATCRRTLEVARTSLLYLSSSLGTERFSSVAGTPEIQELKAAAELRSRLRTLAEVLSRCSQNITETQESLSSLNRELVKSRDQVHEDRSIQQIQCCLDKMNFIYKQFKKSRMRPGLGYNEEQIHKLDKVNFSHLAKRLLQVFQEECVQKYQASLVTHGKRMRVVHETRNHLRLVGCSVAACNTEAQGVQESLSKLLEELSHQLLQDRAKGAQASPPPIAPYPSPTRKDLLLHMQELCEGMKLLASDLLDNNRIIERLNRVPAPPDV
# [2] = target: T2, Serine/threonine-protein kinase Nek1 (Homo sapiens) (UniProt Q96PY6); conditions: at 0.1 µM
# T2 sequence (whole entry): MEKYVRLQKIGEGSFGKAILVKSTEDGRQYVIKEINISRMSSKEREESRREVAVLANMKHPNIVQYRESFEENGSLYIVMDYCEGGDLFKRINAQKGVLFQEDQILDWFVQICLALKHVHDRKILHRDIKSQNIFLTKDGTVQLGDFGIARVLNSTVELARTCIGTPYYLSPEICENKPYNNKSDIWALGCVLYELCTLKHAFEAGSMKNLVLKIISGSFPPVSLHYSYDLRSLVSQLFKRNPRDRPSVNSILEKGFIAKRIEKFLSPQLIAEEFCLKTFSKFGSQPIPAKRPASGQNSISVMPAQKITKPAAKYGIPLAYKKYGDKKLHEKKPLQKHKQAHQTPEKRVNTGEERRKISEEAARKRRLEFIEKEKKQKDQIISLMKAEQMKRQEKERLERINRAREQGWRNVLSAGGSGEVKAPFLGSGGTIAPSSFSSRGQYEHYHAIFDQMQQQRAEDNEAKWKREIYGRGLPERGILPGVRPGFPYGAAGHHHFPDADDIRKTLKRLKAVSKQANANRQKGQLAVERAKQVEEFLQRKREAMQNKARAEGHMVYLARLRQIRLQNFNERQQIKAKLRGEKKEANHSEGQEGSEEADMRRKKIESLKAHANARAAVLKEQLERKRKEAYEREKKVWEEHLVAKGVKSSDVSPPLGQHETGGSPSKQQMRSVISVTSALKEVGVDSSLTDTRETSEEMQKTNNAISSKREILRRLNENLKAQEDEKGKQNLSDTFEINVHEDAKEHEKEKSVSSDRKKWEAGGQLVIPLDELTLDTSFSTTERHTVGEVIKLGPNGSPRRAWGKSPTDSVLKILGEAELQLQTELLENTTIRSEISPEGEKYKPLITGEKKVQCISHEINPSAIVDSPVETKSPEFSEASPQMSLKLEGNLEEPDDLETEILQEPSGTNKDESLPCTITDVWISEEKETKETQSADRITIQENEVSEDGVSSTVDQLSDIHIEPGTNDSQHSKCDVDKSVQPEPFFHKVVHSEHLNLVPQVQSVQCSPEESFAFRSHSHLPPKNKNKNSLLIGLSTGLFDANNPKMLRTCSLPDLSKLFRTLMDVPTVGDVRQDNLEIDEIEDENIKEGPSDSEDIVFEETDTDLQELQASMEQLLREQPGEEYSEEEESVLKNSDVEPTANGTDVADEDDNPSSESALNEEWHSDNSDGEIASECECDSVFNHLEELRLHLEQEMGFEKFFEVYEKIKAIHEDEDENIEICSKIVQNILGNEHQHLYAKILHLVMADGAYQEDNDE
# [3] = target: T2, Serine/threonine-protein kinase Nek1 (Homo sapiens); conditions: at 1 µM
# [4] = target: T3, Serine/threonine-protein kinase Nek2 (Homo sapiens) (UniProt P51955); conditions: at 0.1 µM
# T3 sequence (whole entry): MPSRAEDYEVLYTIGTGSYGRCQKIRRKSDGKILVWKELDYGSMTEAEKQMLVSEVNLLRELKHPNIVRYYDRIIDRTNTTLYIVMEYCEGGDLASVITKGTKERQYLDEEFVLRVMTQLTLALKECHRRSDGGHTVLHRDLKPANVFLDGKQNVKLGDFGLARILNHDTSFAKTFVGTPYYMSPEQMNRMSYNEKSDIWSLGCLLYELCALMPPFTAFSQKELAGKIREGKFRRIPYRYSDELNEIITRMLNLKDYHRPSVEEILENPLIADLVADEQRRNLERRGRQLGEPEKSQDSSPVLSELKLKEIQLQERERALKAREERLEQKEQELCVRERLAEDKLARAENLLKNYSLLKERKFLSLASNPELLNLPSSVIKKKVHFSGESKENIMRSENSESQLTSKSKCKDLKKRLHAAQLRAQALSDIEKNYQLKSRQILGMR
# [5] = target: T3, Serine/threonine-protein kinase Nek2 (Homo sapiens); conditions: at 1 µM
# [6] = target: T4, Serine/threonine-protein kinase Nek6 (Homo sapiens) (UniProt Q9HC98); conditions: at 0.1 µM
# T4 sequence (whole entry): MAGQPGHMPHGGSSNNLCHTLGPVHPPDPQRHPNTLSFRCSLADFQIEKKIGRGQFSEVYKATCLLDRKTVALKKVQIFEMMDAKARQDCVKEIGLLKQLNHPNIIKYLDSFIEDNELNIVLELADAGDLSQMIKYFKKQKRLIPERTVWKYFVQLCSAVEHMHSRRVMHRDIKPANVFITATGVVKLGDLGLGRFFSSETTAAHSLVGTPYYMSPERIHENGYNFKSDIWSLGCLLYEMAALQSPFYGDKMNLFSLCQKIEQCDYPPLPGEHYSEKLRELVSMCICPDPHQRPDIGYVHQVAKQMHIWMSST
# [7] = target: T4, Serine/threonine-protein kinase Nek6 (Homo sapiens); conditions: at 1 µM
# [8] = target: Serine/threonine-protein kinase Nek7 (Homo sapiens) (UniProt Q8TDX7); conditions: at 0.1 µM
# [9] = target: Serine/threonine-protein kinase Nek7 (Homo sapiens) (UniProt Q8TDX7); conditions: at 1 µM
# [10] = target: T5, Serine/threonine-protein kinase Nek9 (Homo sapiens) (UniProt Q8TD19); conditions: at 0.1 µM;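 further: reported value is the mean percent inhibition of NEK9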
# T5 sequence (whole entry): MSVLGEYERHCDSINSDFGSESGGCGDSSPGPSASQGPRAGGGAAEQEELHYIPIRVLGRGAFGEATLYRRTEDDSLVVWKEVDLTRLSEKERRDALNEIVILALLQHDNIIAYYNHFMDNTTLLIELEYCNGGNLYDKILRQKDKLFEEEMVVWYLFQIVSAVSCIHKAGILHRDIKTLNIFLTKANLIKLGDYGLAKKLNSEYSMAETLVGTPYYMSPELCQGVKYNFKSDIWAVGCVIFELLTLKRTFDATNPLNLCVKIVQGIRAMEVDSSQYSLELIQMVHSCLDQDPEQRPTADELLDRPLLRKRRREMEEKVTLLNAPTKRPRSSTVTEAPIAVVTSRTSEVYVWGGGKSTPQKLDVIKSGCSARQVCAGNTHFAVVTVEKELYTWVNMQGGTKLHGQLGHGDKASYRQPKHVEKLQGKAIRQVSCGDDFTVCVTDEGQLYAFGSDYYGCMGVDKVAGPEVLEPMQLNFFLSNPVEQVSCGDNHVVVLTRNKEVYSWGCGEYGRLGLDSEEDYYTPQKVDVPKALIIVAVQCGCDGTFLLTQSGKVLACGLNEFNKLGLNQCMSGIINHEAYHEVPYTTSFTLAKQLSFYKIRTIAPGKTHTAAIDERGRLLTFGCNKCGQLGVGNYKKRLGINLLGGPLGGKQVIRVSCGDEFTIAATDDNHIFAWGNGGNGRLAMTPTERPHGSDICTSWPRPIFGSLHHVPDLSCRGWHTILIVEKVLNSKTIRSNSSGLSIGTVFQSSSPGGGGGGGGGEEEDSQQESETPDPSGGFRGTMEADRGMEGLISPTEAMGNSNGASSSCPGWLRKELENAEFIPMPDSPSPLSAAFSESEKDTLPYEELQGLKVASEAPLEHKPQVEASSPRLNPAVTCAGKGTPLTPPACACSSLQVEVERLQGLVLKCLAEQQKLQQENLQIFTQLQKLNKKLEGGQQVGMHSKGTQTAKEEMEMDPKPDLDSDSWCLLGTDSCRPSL
# Sequence of UniProt Q8TDX7 (Q8TDX7 whole entry, looked up): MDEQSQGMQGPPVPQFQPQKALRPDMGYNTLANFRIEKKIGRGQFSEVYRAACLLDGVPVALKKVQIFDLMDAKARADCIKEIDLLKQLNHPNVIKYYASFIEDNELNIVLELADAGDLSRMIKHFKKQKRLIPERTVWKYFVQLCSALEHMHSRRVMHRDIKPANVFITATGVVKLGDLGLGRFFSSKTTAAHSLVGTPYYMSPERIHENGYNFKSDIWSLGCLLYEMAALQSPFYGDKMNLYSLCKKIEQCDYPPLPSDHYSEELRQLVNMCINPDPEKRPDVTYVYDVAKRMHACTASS
Structure (SMILES),inhibition [1],inhibition [2],inhibition [3],inhibition [4],inhibition [5],inhibition [6],inhibition [7],inhibition [8],inhibition [9],inhibition [10]
COc1ccccc1C1=C(Nc2ccccc2)C(=O)NC1=O,7.53%,2.8%,2.4%,3.27%,4.08%,1.23%,2.63%,3.48%,4.14%,9.22%
Fc1ccc(-c2ncn(C3CCNCC3)c2-c2ccnc(Oc3cccc(F)c3)n2)cc1,7.07%,3.15%,5.32%,7.16%,6.88%,0.95%,4.58%,3.2%,7.72%,4.92%
Fc1ccc(-c2ncn(C3CCNCC3)c2-c2ccnc(Oc3ccc(Cl)cc3)n2)cc1,-0.24%,0.52%,1.21%,0.2%,1.4%,1.13%,3.17%,-0.19%,4.4%,3.96%
Cc1cccc(Oc2nccc(-c3c(-c4ccc(F)cc4)ncn3C3CCNCC3)n2)c1C,5.24%,2.12%,0.4%,4.85%,5.5%,0.24%,3.94%,2.84%,5.48%,5.19%
NC(=O)CCc1ccccc1Oc1nccc(-c2c(-c3ccc(F)cc3)ncn2C2CCNCC2)n1,-2.27%,-0.54%,-0.1%,-1.44%,-1.37%,6.14%,-1.16%,-2.98%,1.8%,0.96%
O=C1NC(=O)C(c2ccccc2)=C1Nc1ccccc1,7.73%,3.46%,5.35%,6.03%,7.56%,1.23%,1.99%,4.69%,7.49%,10.7%
O=C1NC(=O)C(c2cccc([N+](=O)[O-])c2)=C1Nc1cc(Cl)c(O)c(Cl)c1,15.2%,0.27%,1.19%,0.69%,0.86%,1.25%,1.08%,0.57%,0.43%,3.72%
CC(C)(C)c1ccc(Oc2nccc(-c3c(-c4ccc(F)cc4)ncn3C3CCNCC3)n2)cc1,5.67%,1.58%,2.93%,5.08%,4.19%,8.9%,2.85%,3.54%,6.77%,7.57%
O=C(O)c1ccc(Oc2nccc(-c3c(-c4ccc(F)cc4)ncn3C3CCNCC3)n2)cc1,6.26%,2.39%,3.41%,6.33%,5.48%,1.53%,1.36%,3.27%,9.14%,2.53%
COc1ccccc1Oc1nccc(-c2c(-c3ccc(F)cc3)ncn2C2CCNCC2)n1,7.44%,3.05%,1.85%,6.39%,7.03%,1.92%,1.05%,3.35%,7.05%,9.33%
CS(=O)(=O)c1ccc(Oc2nccc(-c3c(-c4ccc(F)cc4)ncn3C3CCNCC3)n2)cc1,4.65%,1.77%,3.04%,5.24%,6.08%,0.94%,1.56%,3.74%,5.22%,8.18%
Fc1ccc(Oc2nccc(-c3c(-c4ccc(F)cc4)ncn3C3CCNCC3)n2)cc1,6.31%,2.31%,1.49%,6.1%,4.39%,2.41%,4.04%,4.05%,9.66%,5.94%
Fc1ccc(-c2ncn(C3CCNCC3)c2-c2ccnc(Oc3cccc(C(F)(F)F)c3)n2)cc1,6.98%,1.2%,3.2%,5.53%,6.98%,0.69%,2.74%,3.96%,6.62%,4.88%
O=C1NC(=O)C(c2ccccc2Cl)=C1Nc1cc(Cl)c(O)c(Cl)c1,9.8%,1.65%,3.04%,3.22%,3.16%,3.32%,3.77%,4.4%,-3.22%,0.96%
